Test results published in PubChem BioAssay AID686979 (National Center for Advancing Translational Sciences (NCATS), 2013).
Where “and” joins values, the source holds several entries; their conditions need not be identical. Equal entries are not always repeated. Among all 420,000 compounds or so, about 50,000 (12%) were called active. Inconclusive results, whose numbers are uncertain, are shown with a selection of clear calls. Calls follow the shape of the dose curve; as a rule, active = well fitted inhibition curve with a large enough effect; inconclusive = small, poorly fitted or top-dose-only effect; inactive = flat fitted curve, though single readings scatter. Potencies beside an inconclusive call are fits to weak or partial responses and may not hold up.

assay: qHTS for Inhibitors of human tyrosyl-DNA phosphodiesterase 1 (TDP1): qHTS in cells in presence of CPT; details: chicken DT40 Tdp1-/-;hTDP1 cells + 20 nM CPT, ATP luminescence, 48 h; activity change, negative = growth inhibition: at 46.2 µM (top of the series) unless noted; also: nearly all actives have a fitted effect of over 55% in size
How it was run: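 Chicken DT40 Tdp1-/- cells stably complemented with human TDP1 were seeded at 400 cells/well in medium containing 20 nM camptothecin, exposed to pin-transferred compounds, and grown at 37 °C for at least 48 hr. Viability was read as ATP luminescence.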
% is scaled to controls: 0 for no effect and ±100 for the full control effect; potency is read from the fitted curve at half-maximal effect; tags tell the direction and shape of the fitted curve.

Row | Compound | Potency | activity change, negative = growth inhibition
1 | COc1cc(OC)c(Nc2cc(C)nc3ncnn23)cc1Cl | inactive | 
2 | CCN(c1ccccc1)S(=O)(=O)c1ccc(OC)c(NC(=O)CN(C)C)c1 | inconclusive: 16.4 µM [inhibitor, single point] | 
3 | CCOC(=O)C1(C)CCCCN1C(=O)c1cccs1 (stereo unspecified) | inactive | 
4 | CCN(CC(=O)Nc1ccccc1C(F)(F)F)C(=O)Cc1sc(C)nc1-c1ccc(F)cc1 | inconclusive: 18.4 µM [inhibitor, single point] | 
5 | CCOc1ccc(Cl)cc1-c1cc(C(=O)Nc2ccc(F)cc2)[nH]n1 | inconclusive: 16.4 µM [inhibitor, single point] | 
6 | COc1ccc(N2CCN(C(=O)c3ccc(OCC4CCCO4)cc3)CC2)cc1 (stereo unspecified) | inactive | 
7 | O=C(Nc1ccc(Br)cc1)C1CCN(c2cnccn2)CC1 | inconclusive: 14.6 µM [inhibitor, partial curve] and inconclusive: 23.1 µM [inhibitor, single point] | 
8 | O=C(Nc1cccc(-c2csc(-c3ccccc3)n2)c1)c1cccs1 | active: 18.4 µM | 
9 | Cc1cc(C)nc(N/C(=N\S(=O)(=O)Cc2ccccc2)Nc2ccccc2Br)n1 | active: 20.6 µM | 
10 | COc1ccc(CNC(=O)CCCCCNC(=O)N2CCn3c2nc2ccccc23)cc1 | inactive | 
11 | COCCNC(=O)c1c[nH]c2ccc(S(=O)(=O)N3CCc4ccccc43)cc2c1=O | active: 14.6 µM | 
12 | COC(=O)c1c(-c2cccc(C)c2)csc1NC(=O)C1CCCO1 (stereo unspecified) | inconclusive: 29.1 µM [inhibitor, partial curve, poor fit] | 
13 | CC12CC3(C)CC(C)(C1)CC(NC(=O)N1CCCC1)(C2)C3 | inconclusive: 20 µM [inhibitor, single point] | 
14 | COc1ccc(OCCCN2CCCCCC2)cc1 | inconclusive: 29.1 µM [inhibitor, single point] | 
15 | CCN1CCN(c2oc(-c3ccco3)nc2C#N)CC1 | inactive | 
16 | Cc1cccc(-n2c(SCC(=O)N3CC(=O)Nc4ccccc43)nc3ccccc3c2=O)c1C | inconclusive: 29.1 µM [inhibitor, single point] | 
17 | CCOC(=O)c1cc2oc(C(c3nnnn3C3CCCCC3)N3CCOCC3)cc2[nH]1 (stereo unspecified) | inconclusive: 29.1 µM [inhibitor, single point] | 
18 | COc1ccc(OCC(=O)Nc2c(Cl)ccc3nsnc23)cc1 | inconclusive: 13 µM [inhibitor, partial curve, poor fit] | 
19 | CCN(CC)S(=O)(=O)c1nnc(NC(=O)COc2ccccc2Cl)s1 | inconclusive: 29.1 µM [inhibitor, single point] | 
20 | CCOc1ccc(C(=O)Nc2cccc(NC(=O)c3ccco3)c2)cc1Cl | inconclusive: 29.1 µM [inhibitor, single point] | 
21 | COc1ccc(NC(=S)c2ccc(N(C)C)cc2)cc1 |  | inconclusive: -31.1% [inhibitor]
22 | COCCNC(=O)COC(=O)c1cccnc1SC | active: 18.4 µM | 
23 | CCc1nn(CC(=O)NCCCN2CCc3ccccc3C2)c(=O)c2cc3sccc3n12 | active: 23.1 µM | 
24 | COc1cccc(C2CC(c3cccs3)=NN2C(=O)CSc2nc3ccccc3o2)c1OC (stereo unspecified) | active: 25.9 µM | 

Row | Compound | Potency | activity change, negative = growth inhibition
25 | COc1ccccc1/C=C1\SC(N2CCC(C)CC2)=NC1=O | inconclusive: 20.6 µM [inhibitor, single point] | 
26 | COC1OC(COC(=O)c2ccccc2)C(OC(=O)c2ccccc2)C1OC(=O)c1ccccc1 (stereo unspecified) | inconclusive: 29.1 µM [inhibitor, single point] | 
27 | CCCC1=C(C(=O)OCC)C(c2ccco2)C(C#N)=C(N)O1 (stereo unspecified) | inconclusive: 23.1 µM [inhibitor, single point] | 
28 | CCC(C(=O)n1cccc1C#N)c1ccccc1C (stereo unspecified) | inactive | 
29 | Cc1ccc(NC(=O)CCC(=O)NNC(=O)c2cccc([N+](=O)[O-])c2)cc1C | inactive | 
30 | CCCCCOc1ccc(CSC2=NCCN2)cc1[N+](=O)[O-] | inconclusive: 23.1 µM [inhibitor, single point] | 
31 | Cc1cc(-c2ccc(S(=O)(=O)N(C)c3ccc(C)c(C)c3)s2)on1 | active: 3.26 µM | 
32 | Cc1ccc(NC(=S)NC2CCN(Cc3ccccc3)CC2)cc1C | inconclusive: 20.6 µM [inhibitor, single point] | 
33 | Cc1ccc(C(=O)NCC(=O)N/N=C/c2cccs2)cc1C | inactive | 
34 | CC(=O)NC1=NN(C(C)=O)C(C)(c2ccco2)S1 (stereo unspecified) | inactive | 
35 | C[C@H](CO)N1C[C@H](C)[C@@H](CN(C)C(=O)Nc2ccccc2)Oc2c(NC(=O)Nc3ccc(C(F)(F)F)cc3)cccc2C1=O | active: 13 µM | 
36 | Cc1ccc(NC(=S)NC2CCSc3ccccc32)cc1 (stereo unspecified) | inconclusive: 23.1 µM [inhibitor, single point] | 
37 | CCN1C(=O)CC(C(C)C)N(C2CCCC2)c2nc(Nc3ccc(C(=O)NC4CCN(C)CC4)cc3OC)ncc21 (stereo unspecified) | inconclusive: 25.9 µM [inhibitor, single point] | 
38 | O=C(O)c1cccc2c1C(=O)c1ccc(-c3ccc(F)cc3OCc3ccccc3)cc1S2(=O)=O | inactive | 
39 | Cn1c(=O)oc2cc(S(=O)(=O)NCCC(=O)N3CCN(c4ccccc4)CC3)ccc21 | inconclusive: 29.1 µM [inhibitor, single point] | 
40 | CC12CCC(=O)N1C(C(=O)Nc1ccccc1N1CCCCC1)CS2 (stereo unspecified) | inconclusive: 23.1 µM [inhibitor, single point] | 
41 | CCc1cc2c(=O)[nH]c(Cc3ccc(OC)cc3)nc2s1 | inconclusive: 7.31 µM [inhibitor, partial curve] | 
42 | COc1ccccc1-c1ccc(SCc2cccc(F)c2)nn1 | inconclusive: 20.6 µM [inhibitor, single point] | 
43 | CCC(CC)c1nn2c(=O)cc(COc3ccc(NC(=O)c4ccccc4Cl)cc3)nc2s1 | inconclusive: 5.8 µM [inhibitor, single point] | 
44 | O=C(Cc1cccs1)N1CCN(S(=O)(=O)c2ccc(Br)cc2)CC1 | inactive | 
45 | COc1ccc(S(=O)(=O)N2CCN(CC(=O)Nc3ccccc3OC)CC2)cc1 | inactive | 
46 | CC(C)(C)c1ccc(OCCC(=O)OCC(=O)NCc2ccccc2)cc1 | inactive | 
47 | Cc1ccccc1NC(=O)Nc1nnc(CC(=O)NCc2ccccc2)s1 | inactive | 
48 | Cc1cccc(CNS(=O)(=O)c2ccc3[nH]c(=O)ccc3c2)c1 | inconclusive: 29.1 µM [inhibitor, single point] | 

Row | Compound | Potency | activity change, negative = growth inhibition
49 | O=C(COc1ccc(S(=O)(=O)N2CCOCC2)cc1)Nc1ccc(Br)cc1 | inconclusive: 29.1 µM [inhibitor, single point] | 
50 | CCCCn1c(O)c(N=NC(=O)c2ccncc2)c2cc(Br)ccc21 | inconclusive: 29.1 µM [inhibitor, single point] | 
51 | CC(=O)Nc1ccc(N2C(=O)CC(Sc3nc(C)cc(C)n3)C2=O)cc1 (stereo unspecified) | inactive | 
52 | COc1ccc(C(=O)NC(=S)N2CCCc3ccccc32)cc1OC | inconclusive: 25.9 µM [inhibitor, single point] | 
53 | O=C(COC(=O)C1=COCCO1)Nc1ccc(F)c(F)c1 | inactive | 
54 | CCN1C[C@@H]2[C@@H]3C(=O)N(Cc4ccccc4)C(=O)[C@@H]3[C@](CC)(C(=O)OC)N2C1=NC1CCCCC1 | inactive | 
55 | COCCOC(=O)C1=C(C)NC(=O)N(C(C)=O)C1c1ccc(Cl)cc1 (stereo unspecified) | inactive | 
56 | CCCc1cc(=O)[nH]c(SCC(=O)c2cc(C)n(-c3cc(C)on3)c2C)n1 | inactive | 
57 | COc1ccc(OC)c(S(=O)(=O)CC(O)COc2ccccc2Cl)c1 (stereo unspecified) | inconclusive: 18.4 µM [inhibitor, single point] | 
58 | CC(C)(C)C1(O)CC(C(F)(F)F)=NN1C(=O)Cc1ccc([N+](=O)[O-])cc1 (stereo unspecified) | inconclusive: 20.6 µM [inhibitor, single point] | 
59 | CCOCCCN(CC(=O)NC1CCCC1)C(=O)C(=O)Nc1ccc2c(c1)OCCO2 | inactive | 
60 | Cn1c(=O)c2c(ncn2CCOC(=O)C(C)(C)Oc2ccc(Cl)cc2)n(C)c1=O | inactive | 
61 | COC(=O)[C@H](CC(C)C)NC(=O)Cn1cnc(C(=O)Nc2ccc(C)c(C)c2)n1 | inactive | 
62 | CC(C)C[C@H](NC(=O)N1CC(=O)Nc2ccccc21)C(=O)N1CCC[C@H]1C(=O)O | inactive | 
63 | C=CCNC(=O)CN(Cc1ccccc1)S(=O)(=O)c1ccc(C)cc1 | inconclusive: 16.4 µM [inhibitor, single point] | 
64 | COc1cccc(/C=N\NC(=O)c2ccc(Cn3cc(Br)c([N+](=O)[O-])n3)o2)c1O | inconclusive: 29.1 µM [inhibitor, single point] | 
65 | CC(C)NC(=O)NC(=O)COC(=O)c1cc(S(=O)(=O)N2CCCCC2)ccc1N1CCOCC1 | inconclusive: 29.1 µM [inhibitor, single point] | 
66 | Cc1ccc(C(=O)COC(=O)c2ccc3c(c2)C(=O)N(c2cccc4ncccc24)C3=O)cc1C | inconclusive: 29.1 µM [inhibitor, single point] | 
67 | Cc1ccc(C)c(N2CCN(CCCNC(=O)Cn3c(=O)c4cccn4c4cccnc43)CC2)c1 | active: 20.6 µM | 
68 | COc1ccc(Cn2c(=O)[nH]c3cc(C(=O)N4CCN(c5cc(C)ccc5C)CC4)ccc3c2=O)cc1 | inconclusive: 29.1 µM [inhibitor, single point] | 
69 | CSCCC(c1nc2ccccc2[nH]1)n1c(/C=C/c2ccc(F)c(F)c2)nc2ccccc21 (stereo unspecified) | inconclusive: 29.1 µM [inhibitor, single point] | 
70 | COc1ccc(C)cc1NC(=O)c1cc(S(=O)(=O)NC2CCCCCC2)ccc1F | inconclusive: 20.6 µM [inhibitor, single point] | 
71 | COc1cccc(Nc2nc(-c3cccnc3)cs2)c1 | inconclusive: 29.1 µM [inhibitor, single point] | 
